Assay results published in the RNAGym collection of RNA variant scans (doi:10.7554/elife.90254).
Read counts are not given, so values of variants with three or more changes are uncertain.

B1: OR4K15 (parent)
chain: GUUAACGGUCAUAGGCCAUGGAAACUAGGAGCACCAUUUCGCUGCCAGUGAAGAAAUGAACAAAGAAAAUCUGGGCCAGGCAGGCAUCAAAAGAAAUAGUCUUGCGCUCAACCAGAAAGUCUGUAAUCAUUUUAAGGGUA

Variants of: B1
Assay: self-cleavage, relative activity (ratio to wild type); higher = more cleavage; in vitro, sequencing; the parent is a self-cleaving ribozyme

| Variant | self-cleavage |
| --- | --- |
| U9A U122C U132C | 0.89 |
| U12C U127C U131C | 0.82 |
| A5G U49C A63U U100A | 0.37 |
| A27U A47G U57C A95G A111G U122C | 0.01 |
| U43C U49A A55U A56G A95G U100C | 1.35 |
| A22G A116G A129U | 0.25 |
| A51G A59G U122A | 1.25 |
| U19C U37C U43C A89G U122G A134G | 1.52 |
| U3C A51C C101U | 0.14 |
| U39G A68G U131C | 1.13 |
| U3C A22G U127C A129U | 0.72 |
| U37C A47G A110U | 1.69 |
| U57C U70C U131C | 0.43 |
| A11G A22G A62G | 0.41 |
| A30U U100A U130C | 0.39 |
| A63G A86G A91G A126G | 0.03 |
| A55G U97C U120C U131C | 0.79 |
| A59G A62G U120C | 0.92 |
| G50A U57C A82U | 0.11 |
| U38G A92G U130C | 0.88 |
| A5U A55G U103C A129U | 0.6 |

| Variant | self-cleavage |
| --- | --- |
| U39C C42A A62G U132C | 0.42 |
| C42A A54U U100G | 1.03 |
| A36G A47G A82G A111G A117G | 0.01 |
| U39C A67G U133C | 1.65 |
| A24C A36G U70C A78U A96G A116U | 0.06 |
| A36G A66U A110G | 0.11 |
| U3C U43G C77U | 1.51 |
| A5G U39C A110G | 0.37 |
| A52U A55G A82U A95G U102A G106A | 0.01 |
| A5U U19C U26A A54G A89G | 0.89 |
| A22G A24G A66G | 1.13 |
| A55G A86G A92U A95G | 1.67 |
| G7U U9C A78U U133C | 0.57 |
| A95G U102A U139C A140G | 2.13 |
| A11U A60U A86G | 1.23 |
| U9C A24U U49C A63U C88U A95G U100C | 1.86 |
| U19A A33G U37C U103A | 0.28 |
| U39C U57C A60G | 0.97 |
| A90G U108A A116G U131C | 0 |
| A52U A117G C128U | 0.75 |
| U49C A59G U87C A116G | 0.19 |

| Variant | self-cleavage |
| --- | --- |
| U70C A96G A118G U122C | 0.26 |
| A59G A96U A126G G137A | 1.41 |
| A30G U39C A68G A91G U132C | 1.24 |
| A23U A118G U133C A140U | 1.75 |
| C6A A59G U122A | 0.2 |
| A13U A60G A118G | 0.91 |
| U37C U43C A62U A92G | 1.09 |
| A30U A56G A117C A135G | 0.63 |
| A67G A90U U103C | 0.52 |
| A30U A54G U108C | 0.02 |
| G74A U100C U108C A111G A135C | 0 |
| A52G A55G U72C G80A A114G | 0.29 |
| A18C A67G U102C A116G | 0.62 |
| A23C G84A U100C U122C | 0.37 |
| A24G U57C A82G | 0.3 |
| A52U A64G A67C A86G U122A | 1.35 |
| A66G A68G A92G U124G | 0.94 |
| U9C A60U A68G A69U U108A | 0.02 |
| G20A A30U A36U A92U A95G A116G | 1.11 |
| A69G U70G U127C U132C | 0.18 |
| A92G U100C A140G | 2.71 |

| Variant | self-cleavage |
| --- | --- |
| C16U A60G U139A | 0.37 |
| A60G A63G A69G A116G A129C | 0.16 |
| C40U A67G A89G | 1.78 |
| U103C A114G U132C | 0.04 |
| A30G U37C A60G A82G | 0.42 |
| A54U A66G A91G U132C | 1.2 |
| A30G A33G G48C A54G | 0.46 |
| A18U U19C A30G A69G A78U U103C U131C | 0.1 |
| A56G U57C A63G A126G A129G | 0.51 |
| U9A G58A A63G A92G U97C | 0.66 |
| A11G A18U U72C | 0.38 |
| A23G U43C A56G G74A U102A | 0.05 |
| A55U A59U U102C | 1.84 |
| A69G A118G G123A | 1.4 |
| A82C A90G A126G | 0.1 |
| A90G U102C A140G | 1.03 |
| U2C G48A A98G U108C | 0.01 |
| A67G A68G A86G U87A U122C | 0.9 |
| U19C U39A A47G | 1.67 |
| U49C A69U A82U A126G | 0.04 |
| U19C U39G A66G U87C | 0.54 |
